# The source gives no read counts; variants with many changes may rest on few reads.
# B1: LINE1-mini (parent)
# chain: GGCAGAGCUCAACACAGCGUGGCAAAGUGGCUGUGGCUAGACUGCC
# Variants of: B1
# Test: self-cleavage, relative activity (ratio to wild type); higher = more cleavage; in vitro, sequencing; the parent is a self-cleaving ribozyme
row,Variant,self-cleavage
1,G5U A16U G21A C37A,0.07
2,G5U A24U G29U,0.16
3,G5U A24G U28C C42G,0.01
4,G5U C18A G36C C37A C46U,0
5,G5U C10A A12C C13U G36A A41G G44U,0.03
6,G5U A11G U32G,0
7,G5U G7C A26U,0.12
8,G5U G7C A12G G36U,0.01
9,G5U C31U U34G,0.01
10,G5U A25G A39U,0.04
11,G5U C23G G30U G33U C37G,0.01
12,G5U G19U A25C C31A,0.01
13,G5U A12G C15A C31A,0.1
14,G5U A16U G22A U38G,0.01
15,G5U C15A G21C G33C,0.02
16,G5U G7C C8G,0.43
17,G5U G21U C37G A41U,0.07
18,G5U A12U A41U,0.04
19,G5U G19C G21C C42A C46U,0.03
20,G5U A16C A25U G33A G40U,0.03
21,G5U A16C G35A,0.25
22,G5U A14G G29U,0.01
23,G5U C8G A12G A24C G30U C42A,0.12
24,G5U C18G C46G,0.03

row,Variant,self-cleavage
1,G5U A14C A24G,0.63
2,G5U C18G A41C,0.02
3,G5U G17U G29U U34G,0.11
4,G5U C8U A24U U28A U34C G40U G44A,0.08
5,G5U A26U C31G,0
6,G5U C10U C18G,0.04
7,G5U C18U G19C G21A G29U C31G C37A,0.12
8,G5U A12G A26G G33A,0.02
9,G5U A39U A41U,0.11
10,G5U C23A G36U C42A,0.03
11,G5U G7A C8G C13U C15G U32A A39U,0.01
12,G5U G21C A26U A39C,0.01
13,G5U G7A C8U G27A,0.24
14,G5U C8U A14G A16G G19C C23U,0.07
15,G5U A25U C37U,0.07
16,G5U C15U C46G,0.19
17,G5U A12U C31U G44A C45G,0.28
18,G5U C13A C15G G27C C37U,0.03
19,G5U C10A U20G,0.02
20,G5U A12G U32G G44A,0.05
21,G5U A39G G40C,0.01
22,G5U A14G A25U A26G,0.08
23,G5U G17A G35A,0.03
24,G5U C10G C13A C46G,0.05

row,Variant,self-cleavage
1,G5U G21U G33C,0.02
2,G5U C18U U34C,0.05
3,G5U C8G A12G G44C,0.02
4,G5U C13A U43G,0.01
5,G5U G21C G30A,0.06
6,G5U C8U A16C G22A,0.05
7,G5U C13A G27A,0.07
8,G5U C10A C18U,0.03
9,G5U A16U C42A U43A,0.01
10,G5U A11U G29U C42A,0.11
11,G5U C15G A16G A25U,0.03
12,G5U G21C A41G,0.06
13,G5U A16C C18A C45U,0.03
14,G5U C15A U38A U43G G44A,0.01
15,G5U C18U U38C G44A,0.02
16,G5U A11G C42A,0.01
17,G5U G7A G35U U38G,0.01
18,G5U A12C U20A U32C,0.05
19,G5U A25G A26C G36U,0.09
20,G5U C10A G22U U28C,0.02
21,G5U C10A G27C,0.03
22,G5U C10A C31U G33U,0.02
23,G5U G7U C10U A26C U43A,0.08
24,G5U A16C C18U C31A G40A U43A,0.03

row,Variant,self-cleavage
1,G5U A16G G17U A25C G33U,0.01
2,G5U C13A C31G,0.07
3,G5U C15U A16G C37G,0.03
4,G5U A16U C45U,0.02
5,G5U G7U G30A G36C,0.06
6,G5U C8U U32C,0.11
7,G5U G7A G29U,0.08
8,G5U A12C C18G C46U,0.01
9,G5U A12G G30A U34C A39G,0.15
10,G5U A16C U20G,0.01
11,G5U A11G U28A U38C A41C C42A,0
12,G5U A14U A41G,0.06
13,G5U C15G U34G C46A,0.02
14,G5U G7U A16G,0.07
15,G5U C8A C13A U32A,0.03
16,G5U A11C G35U,0.01
17,G5U A14C C18U,0.05
18,G5U A14G A16U A39G,0.07
19,G5U G17U C18U G29U,0.02
20,G5U A14G U20G U38A,0.05
21,G5U C13U C37A A41C,0.14
22,G5U C10G C31A,0.06
23,G5U C15A G21C A39G,0.03
24,G5U C13G U43G,0

row,Variant,self-cleavage
1,G5U A24C A41G,0.03
2,G5U A25G G29U,0.04
3,G5U G7A C15U G17A G19A,0.03
4,G5U A25C C45U C46A,0.04
5,G5U A16G C23A,0.04
6,G5U C10U G19U G21A,0.05
7,G5U G21C A24U,0.03
8,G5U A12G A24U,0
9,G5U A25C U34A,0
10,G5U A11G C13U G19U G22U,0.03
11,G5U C18A C37U,0.02
12,G5U A14U G30A U32C C37U,0.11
13,G5U G21U G40U G44U,0
14,G5U C13U G19A G22C A39C C45U,0.13
15,G5U C8A A12G,0.06
16,G5U C8A A12C,0.01
17,G5U G21A U28A G30U A39U,0.05
18,G5U C18U A24G A25C G36C,0
19,G5U A12C G22A U28A G40A,0.03
20,G5U C31U G33C,0.02
21,G5U G7A G17C,0.21
22,G5U G21A G30A G33C,0.36
23,G5U C23A A41G,0.35
24,G5U A12C A16C,0.02

row,Variant,self-cleavage
1,G5U G7U A14C C37U C45U,0.02
2,G5U G17A C42U,0.04
3,G5U C13A A25G G35A,0.01
4,G5U C8U C15G,0.08
5,G5U A14C U34A G44A C46A,0.06
6,G5U A25C C45U,0.46
7,G5U C8U G19U G44U,0.1
8,G5U G19U C46A,0.07
9,G5U G19U C46G,0.03
10,G5U C13G A39C,0.03
11,G5U C15U A16C C42U,0.06
12,G5U G21C G22C U28A,0.03
13,G5U C18U A39G,0.04
14,G5U A39U C42A,0.87
15,G5U G21C G30C U32A C45A,0.04
16,G5U A14G A24G,0
17,G5U G7U A26U,0.03
18,G5U A11U C13U G19U C42G,0.02
19,G5U C31A G36U,0.05
20,G5U G17A C31U U32A U34A,0.03
21,G5U A12U A16U C18G A41G,0.01
22,G5U A26G G33A,0.22
23,G5U G7C A14G C15A,0.11
24,G5U C10A G19A G44C,0.01

row,Variant,self-cleavage
1,G5U C10U A12U C13G G21U,0.03
2,G5U C10A A11C G17U,0.02
3,G5U A26C C46A,0.03
4,G5U C10A U20A G21U,0
5,G5U C8U C45U,0.49
6,G5U G17A G35U G44U,0.02
7,G5U G17U G19A G27A U43G,0.05
8,G5U G17A C37A,0.03
9,G5U A11G G29U,0
10,G5U A12U G22C C23U,0.02
11,G5U G21C A26G C42U,0.02
12,G5U C13A U38C,0.03
13,G5U C31A U34G,0.05
14,G5U C15A G17C,0.01
15,G5U C18U G29U,0.04
16,G5U A12U A26U C42A,0.03
17,G5U A41C C45U,0.09
18,G5U C8U G27C,0.23
19,G5U A11G C13U A14C G21U,0.04
20,G5U G21C A41G C46A,0.15
21,G5U C8A C13U A16G U20G G36C,0.01
22,G5U A11U C23A U28G,0.01
23,G5U C13A G21U,0.15

# — the RNAGym collection of RNA variant scans (doi:10.7554/elife.90254)
